The term AC50 denotes the concentration at which the activity in the assay is half-maximal.

SMILES strings stand for the structures. Some of the results follow. The main result of the screen is listed elsewhere. These columns were measured beside it and carry no call. Compounds called inactive in the main read-out are mostly missing here. Potencies come from curve fits of mixed quality, noted in brackets.

The source of these data is PubChem BioAssay (NCATS).
Tags tell the direction and shape of the fitted curve.

The assay can be described thus: qHTS Assay for Lipid Storage Modulators (AID 1519). The conditions noted are these: Drosophila S3 cells, BODIPY lipid droplet/cell ratio, laser cytometry; measured here: lipid (BODIPY) channel AC50; cells loaded with oleic acid. A digest of the protocol: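 Cells seeded at 5,000 per well were treated with compounds over a concentration series and loaded with oleic acid (400 uM, as added). Lipid droplet fluorescence (488 nm excitation, 500-530 nm channel) was read by laser-scanning cytometry and normalized to 20 uM Triacsin C.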
(In general: qHTS replaces the single test concentration by a dilution series.)
Take `COc1ccccc1-c1cc(-n2ccnc2)ncn1`: the AC50 was 501 nM [rising, full curve, poor fit].
For `O=c1c(-c2cccc(F)c2)nc2cncnc2n1-c1ccccc1`, the concentration at half-maximal activity (AC50) was 89.1 nM [rising, full curve].
In the case of `COc1ccc(Oc2ncc3nc(-c4ccc(Cl)cc4)c(=O)n(C)c3n2)cc1`, the AC50 is 56.2 nM [rising, full curve, poor fit].
On to `Cc1nc2cnc(Oc3ccccc3)nc2n(Cc2cccs2)c1=O`, for which the half-maximal activity concentration (AC50) was 8910 nM [rising, partial curve].
As to `COc1ncc2nc(-c3cccs3)c(=O)n(Cc3ccc(F)cc3)c2n1`, the AC50 was 126 nM [rising, full curve].
Take `CC1(C)CC[C@]2(C(=O)O)CC[C@]3(C)C(=CCC4[C@@]5(C)CC[C@H](O)C(C)(C)C5[C@H](O)C[C@]43C)C2C1` (stereo not given in full): the AC50 was 7080 nM [rising, full curve].
Turning to `CCNc1ncc2nc(-c3cc(F)cc(F)c3)c(=O)n(-c3ccc(OC)cc3)c2n1`, the half-maximal activity concentration (AC50) is 17.8 nM [rising, full curve].
In the case of `CCNc1ncc2nc(-c3ccc(Cl)cc3)c(=O)n(Cc3cccc(OC)c3)c2n1`, the AC50 is 112 nM [rising, full curve, poor fit].
Regarding `CC1(C)C(OC(=O)CCC(=O)O)CC[C@]2(C)C1CC[C@@]1(C)C2C(=O)C=C2[C@@H]3C[C@@](C)(C(=O)O)CC[C@]3(C)CCC21C` (stereo not given in full), the AC50 was 3980 nM [rising, full curve].
`O=c1cnc2cnc(Oc3cccc(Cl)c3)nc2n1CCc1ccccc1`: the AC50 is 5620 nM [rising, full curve, poor fit].
